Out of some 150,000 compounds screened, about 540 (0.36%) showed an effect of 50% or more. Some of the results follow.

The results in this text go back to ChEMBL document CHEMBL4888484, “Replenishing the malaria drug discovery pipeline: Screening and hit evaluation of the MMV Hit Generation Library 1 (HGL1) against asexual blood stage Plasmodium falciparum ,using a nano luciferase reporter read-out” (2022).

The test system of this experiment is Plasmodium falciparum. The experiment is described as follows: Primary screen in NF54 nanoGlo assay, in single point, at 2uM, 72h; a lower Z score goes with more inhibition. Type of experiment: functional, Erythrocyte. The conditions noted are these: timepoint 72 hour.
Usually % Inhibition stands for the drop in the measured response relative to a control, in per cent. Regarding `Cc1cc2cc(CNC(=O)c3ccc(Br)o3)ccc2n1C`, the “% Inhibition” value was -3% and the Z score is recorded as 0.45.
On to `Cn1ccnc1C(=O)Cc1ccc(F)cc1`, for which the “% Inhibition” value is -2% and the Z score was found to be 0.36.
The corresponding values for `CNC(=NCc1ccccc1OCCC(C)C)NC` are 6% and -0.91.
The corresponding values for `OC(CNC1CCCC(C(F)(F)F)C1)CN1CCCCC1` (stereo not given) are -7% and 0.99.
The corresponding values for `COc1ccc(CN2CCC3(CC2)NC(=O)c2cc(Cl)ccc2N3)cc1` are -5% and 0.61.
In the case of `CC(=O)c1cccc(CN2CCC(CCC(=O)N(C)Cc3ccccc3)CC2)c1`, the “% Inhibition” value is given as -3% and the Z score is recorded as 0.34.
The corresponding values for `O=S(=O)(Nc1cccc(/C=C/c2ccncc2)c1)c1ccc2c(c1)OCCO2` are -13% and 1.54.
With `Cc1cc(NC(=O)c2cnn3c2C[C@@H](C)CC3)c[nH]c1=O`, the “% Inhibition” value is given as -20% and the Z score came out at 2.56.
The corresponding values for `Cc1ncc2c(c1-c1noc(-c3ccco3)n1)CCN(C(=O)[C@@H]1CCCO1)C2` are -6% and 0.72.
The corresponding values for `Cc1cc(C)n(-c2nc3c(c(=O)n2CC(=O)NCc2ccc(F)cc2)CCC3)n1` are -11% and 1.46.
The corresponding values for `CCCC1CCC(c2ccc(OC(=O)c3cccc(C(=O)OC)n3)cc2)CC1` (stereo not given) are -10% and 1.93.
Consider `CCc1cc(NC[C@H](O)c2cncs2)ncn1`, for which the “% Inhibition” value was -12% and the Z score was 2.32.
The corresponding values for `O=c1[nH]cccc1-c1cc(NCc2cccnc2)nc2[nH]ccc12` are -6% and 1.05.
The corresponding values for `COc1cc(OC)nc(C(=O)N2CCCC[C@@]23CCOC3)n1` are -6% and 0.96.
Consider `CC(=O)Nc1cc(C(=O)NCc2scnc2-c2ccccc2)cc2ncn(CCc3ccccn3)c12`, for which the “% Inhibition” value was found to be 5% and the Z score is -0.72.
Turning to `C=C[C@H]1OCC[C@@H]1CN1C(=O)N(C)C(C)(C)C1=O`, the “% Inhibition” value is on record as -15% and the Z score came out at 2.13.
The corresponding values for `O=C(N[C@H]1CCn2nccc2C1)c1ccc(OC(F)F)cn1` are -8% and 0.97.
The corresponding values for `Cn1nnc(NS(=O)(=O)c2ccc(O)cc2)n1` are 15% and -2.26.
The corresponding values for `Cc1nc2cc(C(=O)N(C)[C@H]3CCNC3=O)ccc2o1` are 2% and -0.46.
For the compound `CCC(C)C(NS(=O)(=O)c1cccc(C(F)(F)F)c1)C(=O)NCCc1ccccn1` (stereo not given), the “% Inhibition” value was -10% and the Z score is given as 1.31.
The corresponding values for `O=C1NCCN2CC3(CCN(S(=O)(=O)Cc4ccccc4F)CC3)C[C@@H]12` are 3% and -0.64.
The corresponding values for `CCNC(=O)Nc1nnc(CC(C)C)s1` are 5% and -0.63.
Take `Cn1nnnc1NC(=O)c1c(Cl)cccc1OCC1CC1`: the “% Inhibition” value came to 3% and the Z score was -0.52.
Regarding `Cc1ccc(N2CC(C(=O)NC3CCc4nccn4C3)CC2=O)cc1` (stereo not given), the “% Inhibition” value was -7% and the Z score was determined as 1.45.
The corresponding values for `C[C@@H](CCn1cccn1)NCC(=O)Nc1ccc(Cl)cc1F` are 2% and -0.38.
The corresponding values for `Cc1ccc(C(C)NC(=O)C2COc3ccccc3O2)o1` (stereo not given) are -2% and 0.17.
For the compound `CN1CCCC1C(=O)NCCCC1CCCCC1O` (stereo not given), the “% Inhibition” value was found to be 10% and the Z score is -1.6.
The corresponding values for `C[C@@H]1CN(C(=O)NCc2cn(C)nc2C(F)(F)F)C[C@H]1CO` are 1% and -0.1.
The corresponding values for `CCOc1ccc(CN(CCO)CCO)cc1C(=O)OC` are -8% and 1.08.
The corresponding values for `CC(CC#N)NS(=O)(=O)c1cnc(N2CCCC2C)c(Cl)c1` (stereo not given) are -1% and 0.17.
For `Cc1nc(N)nc(C(F)(F)F)c1Br`, the “% Inhibition” value is recorded as -1% and the Z score is on record as 0.16.
The corresponding values for `CCCNC(=O)Cc1ccc(N(Cc2ccccc2C)C(=O)c2cccs2)cc1` are -4% and 0.5.
The corresponding values for `CCN1CC(C)C(NC(=O)NC[C@@H]2Cc3ccccc3CO2)C1` (stereo not given in full) are -4% and 0.71.
Consider `CCN(Cc1ccccc1)C(=O)c1cc(S(=O)(=O)N2CCOCC2)ccc1N1CCCC1`, for which the “% Inhibition” value is on record as -6% and the Z score worked out at 0.54.
The corresponding values for `Cc1cccc(CC2CN(C(=O)Cc3ccc(C(=O)O)cc3)C2)c1` are -9% and 1.39.
The corresponding values for `N#Cc1ccccc1Oc1ccc2c(c1)CCC(=O)N2` are -4% and 0.53.
The corresponding values for `CCc1nccc(CN(C)[C@@H](CC)c2ccccc2)n1` are -4% and 0.43.
For `C[C@H](O)CNS(=O)(=O)[C@H]1C[C@@H]1c1ccc(Br)cc1`, the “% Inhibition” value is reported as 3% and the Z score was -0.36.
The corresponding values for `COc1ccc(C(=O)N2CCC3(CCCCC3)C2)nn1` are -5% and 0.41.
The corresponding values for `CN(CC(=O)NC[C@H]1CCCc2ccc(C(=O)O)cc21)C1CCC1` are -14% and 2.79.
In the case of `Cc1noc(-c2ccc(S(=O)(=O)N3C[C@H]4CC[C@@H](C3)N(C)C4=O)o2)c1C`, the “% Inhibition” value is 3% and the Z score was -0.39.
As for `Cc1ccn(-c2cccc(NC(=O)N[C@@H]3C=C[C@H](CO)C3)c2)n1`, the “% Inhibition” value is on record as 2% and the Z score is reported as -0.2.
The corresponding values for `O=C1NC(=O)c2ccc3c4c(ccc1c24)C(=O)N(c1ccccc1)C3=O` are 73% and -8.98.
The corresponding values for `Cc1cc2c(N3CCC(C(=O)Nc4ccc(Cl)cc4C)CC3)nccc2s1` are 1% and -0.24.
The corresponding values for `CCNc1ncc(C(=O)N2CCCCCCC2)cn1` are 1% and -0.16.
Consider `O=C(N[C@@H](CCO)c1ccccc1F)c1nc(C2CC2)ncc1Br`, for which the “% Inhibition” value is reported as -9% and the Z score is given as 1.7.
The corresponding values for `CNC(=O)C1(N2CCC[C@H]2C(=O)N2CC[C@@H](O)C2)CCCCC1` are -6% and 0.86.
The corresponding values for `CC(=O)N1CCCN(S(=O)(=O)Cc2ccccc2Cl)CCNC(=O)[C@@H]2CCC[C@@H]21` are 45% and -5.08.
The corresponding values for `COc1cccc(-c2nc3ccc(-c4cccc(C)c4)cn3c2CN2CCN(S(=O)(=O)c3ccc(F)cc3OC)CC2)c1` are -1% and 0.08.
For the compound `Cc1cc(O)nc2cc(NC(=O)CCn3cnnn3)ccc12`, the “% Inhibition” value was -2% and the Z score was 0.34.
`CC(C)(C(=O)N1CCCc2cc[nH]c(=O)c21)c1cccc(Cl)c1`: the “% Inhibition” value amounted to 3% and the Z score was -0.55.
For `O=C(c1csc(S(=O)(=O)N2CCCCCC2)c1)N1CCCCC1`, the “% Inhibition” value is recorded as -6% and the Z score stood at 0.63.
The corresponding values for `Cc1ccc(O[C@H]2CCCN(S(=O)(=O)c3ccc(C#N)cc3)C2)nn1` are -33% and 3.77.
Regarding `Cc1c(C(F)(F)F)nn(C)c1NC(=O)[C@@H]1COc2ccccc2O1`, the “% Inhibition” value is recorded as 30% and the Z score is listed as -3.98.
The corresponding values for `CCc1ccc(CNC(=O)[C@]2(C)COCc3nnc(C(C)C)n32)cc1` are -12% and 1.45.
The corresponding values for `C[C@@H](CC(N)=O)NC(=O)CCc1ccccc1` are -2% and 0.44.
Turning to `CN(C)c1cc(C(=O)N2CC(C)(C)O[C@](C)(C(F)(F)F)C2)ccn1`, the “% Inhibition” value was -5% and the Z score is recorded as 0.95.
The corresponding values for `O=C(CNC(=O)OCc1ccccc1)NCc1cccnc1-c1cccnc1` are -6% and 0.91.
The corresponding values for `Cc1ccc(-c2noc(-c3ccc(CS(=O)(=O)c4ccc(C)cc4)o3)n2)cc1` are -11% and 1.63.
`Cc1cc(C(=O)Nc2cccc(CCN3CC(C)C(C)C3)c2)nn1C` (stereo not given): the “% Inhibition” value is given as -6% and the Z score stood at 0.56.
For `c1ncc(-c2n[nH]c(C3CCCCC3)n2)cn1`, the “% Inhibition” value is reported as 15% and the Z score was -2.09.
The corresponding values for `O=C(C[C@@H]1N=C(O)N(CCc2cccc(F)c2)C1=O)N1CCc2ccccc2C1` are -2% and 0.16.
Regarding `O=C(CC1CCC(F)(F)CC1)Nc1ccc(Oc2cccnn2)cc1`, the “% Inhibition” value was -8% and the Z score was determined as 1.24.
The corresponding values for `CN(C)C(=O)c1ccc(Br)cc1Cl` are -10% and 1.05.
The corresponding values for `O=C(NCCc1ccc(F)cc1)[C@H]1C[C@@H](O)CN1` are -14% and 2.45.
The corresponding values for `CCc1nc(-c2ccccc2)nc(N2CCN(S(=O)(=O)CC)CC2)c1Cc1ccc(F)cc1` are -7% and 0.9.
Regarding `CCOc1cc([C@H]2Nc3ccccc3C(=O)N2c2ccc3c(c2)OCO3)ccc1O`, the “% Inhibition” value is given as -3% and the Z score worked out at 0.49.
The corresponding values for `O=C(Nc1nc(-c2ccc3c(c2)OCCO3)cs1)c1ccc2[nH]cnc2c1` are 15% and -2.7.
The corresponding values for `Cc1nc(CNC(=O)COc2ccc(Cl)cc2)n[nH]1` are -13% and 1.9.
For the compound `c1cncc(CN2CC[C@H](c3nc4ccccc4s3)C2)c1`, the “% Inhibition” value is 22% and the Z score is reported as -2.55.
The corresponding values for `CC(C)N(CC(=O)Nc1nc(CC(=O)N[C@@H](C)CCc2ccccc2)cs1)C(=O)c1ccc(F)cc1` are -1% and 0.13.
The corresponding values for `CN(C)c1cccc(Oc2nnnn2[C@H]2CO[C@H]3[C@@H]2OC[C@@H]3NC(=O)NCc2ccccc2)c1` are -7% and 1.08.
The corresponding values for `CCn1nccc1NC(=O)[C@@]1(C)CC1(F)F` are 0% and -0.01.
Take `CCCNc1nc(-c2cc(C(=O)N(C)C)cs2)cs1`: the “% Inhibition” value is recorded as -20% and the Z score amounted to 1.78.
Consider `CN(c1cnn(C)c1)S(=O)(=O)CC1(C(F)(F)F)CCC1`, for which the “% Inhibition” value came out at 12% and the Z score is listed as -1.43.
The corresponding values for `CNC(=O)c1noc(CN(Cc2ccc(C)s2)C2CCCC2)n1` are 8% and -1.07.
On to `CCCn1cc(NC(=O)NC[C@H]2CC(=O)N(C3CC3)C2)cn1`, for which the “% Inhibition” value is on record as -17% and the Z score is recorded as 2.17.
The corresponding values for `Cn1nc(-c2nc(C3CCOCC3)no2)c2c1CN(C(=O)C1(C)CCCCC1)C2` are 2% and -0.28.
The corresponding values for `CC[C@H](NC1CCCC1)c1nc(C)c[nH]1` are 0% and -0.02.
The corresponding values for `O=C(CN1CCN(c2ccccc2)C1=O)N[C@H]1CC[C@H](Oc2cnccn2)CC1` are -14% and 1.62.
As for `CC1CCCN(C(=O)NCC2CCCN(C(C)C)C2)C1` (stereo not given), the “% Inhibition” value is recorded as -4% and the Z score came to 0.54.
Consider `COc1ccccc1-n1c(=O)n(C2CCCC2)c(=O)c2c1ncn2[C@@H](C)c1ccccc1`, for which the “% Inhibition” value came out at 3% and the Z score is on record as -0.33.
For the compound `COC(C)(C)C(=O)Nc1ccc(C(C)=O)cn1`, the “% Inhibition” value is reported as -1% and the Z score was 0.1.
For `O=C(NCC1CC1)C1Cc2ccccc2N2CCN(c3ccc(F)cc3)CC12` (stereo not given), the “% Inhibition” value is recorded as 1% and the Z score is on record as -0.18.
Turning to `CC1=C(C(=O)N2CCOCC2)[C@H](c2cccc(O)c2)n2ncnc2N1`, the “% Inhibition” value was -2% and the Z score stood at 0.2.
